# The list shows a part of the results, in another mix than the full data. The list includes weakly bound sequences.
# What was measured:
# Assay in all cases: protein-binding microarray (PBM)
# Details in all cases: PBM: ~300 nM protein, 6 mM HEPES pH 7.8, 80 mM KCl, 0.5 mM EDTA, 0.5 mM EGTA, 6% glycerol, 35 ng/ul poly-dIdC, 1% milk, 1 h, room temperature; Ap Aiptasia and Nv Nematostella (sea anemones) / Co Capsaspora / Aq Amphimedon (sponge) / Dm Drosophila / Hu human; RHD is the Rel homology domain; high values mean tight binding; most listed sequences are background and not binding sites; double strand, one strand shown
# GST-Ap-NF-kB RHD = target: T1, GST-Ap-NF-kB RHD (UniProt A0A913YAJ5)
# T1 sequence: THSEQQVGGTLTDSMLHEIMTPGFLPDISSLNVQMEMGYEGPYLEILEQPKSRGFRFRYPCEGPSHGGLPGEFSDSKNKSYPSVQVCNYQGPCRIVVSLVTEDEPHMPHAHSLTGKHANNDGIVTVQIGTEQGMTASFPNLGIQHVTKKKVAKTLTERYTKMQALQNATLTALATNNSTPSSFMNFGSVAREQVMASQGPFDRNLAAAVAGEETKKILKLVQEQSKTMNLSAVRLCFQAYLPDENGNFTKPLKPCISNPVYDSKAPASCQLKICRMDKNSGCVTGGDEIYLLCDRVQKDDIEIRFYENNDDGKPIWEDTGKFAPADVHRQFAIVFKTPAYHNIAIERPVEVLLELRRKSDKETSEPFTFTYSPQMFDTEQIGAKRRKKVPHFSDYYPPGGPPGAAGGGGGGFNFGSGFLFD
# [1] = target: T2, GST-Nv-NF-kB (Cys allele) (UniProt E5G601)
# T2 sequence: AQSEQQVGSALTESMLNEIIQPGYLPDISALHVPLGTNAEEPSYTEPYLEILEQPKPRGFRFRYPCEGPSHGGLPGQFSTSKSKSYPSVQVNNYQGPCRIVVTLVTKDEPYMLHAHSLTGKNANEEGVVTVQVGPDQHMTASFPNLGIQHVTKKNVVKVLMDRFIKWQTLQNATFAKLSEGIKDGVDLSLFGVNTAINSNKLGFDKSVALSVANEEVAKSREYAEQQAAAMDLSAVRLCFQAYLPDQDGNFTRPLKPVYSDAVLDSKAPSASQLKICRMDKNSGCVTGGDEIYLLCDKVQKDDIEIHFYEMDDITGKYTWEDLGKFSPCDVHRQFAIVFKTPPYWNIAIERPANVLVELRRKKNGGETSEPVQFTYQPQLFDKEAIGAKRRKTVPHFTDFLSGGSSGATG
# GST-Co-NF-kB = target: T3, GST-Co-NF-kB (UniProt F1ARL5)
# T3 sequence: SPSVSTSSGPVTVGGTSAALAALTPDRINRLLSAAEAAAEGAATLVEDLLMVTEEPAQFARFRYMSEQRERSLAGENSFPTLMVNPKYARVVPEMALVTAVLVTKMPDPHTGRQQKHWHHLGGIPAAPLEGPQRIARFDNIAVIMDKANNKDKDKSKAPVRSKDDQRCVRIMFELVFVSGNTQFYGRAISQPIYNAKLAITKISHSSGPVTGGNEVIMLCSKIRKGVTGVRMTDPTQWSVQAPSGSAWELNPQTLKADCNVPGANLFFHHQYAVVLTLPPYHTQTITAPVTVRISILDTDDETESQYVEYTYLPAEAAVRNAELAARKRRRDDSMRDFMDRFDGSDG
# GST-Dm-Relish = target: T4, GST-Dm-Relish (UniProt Q94527)
# T4 sequence: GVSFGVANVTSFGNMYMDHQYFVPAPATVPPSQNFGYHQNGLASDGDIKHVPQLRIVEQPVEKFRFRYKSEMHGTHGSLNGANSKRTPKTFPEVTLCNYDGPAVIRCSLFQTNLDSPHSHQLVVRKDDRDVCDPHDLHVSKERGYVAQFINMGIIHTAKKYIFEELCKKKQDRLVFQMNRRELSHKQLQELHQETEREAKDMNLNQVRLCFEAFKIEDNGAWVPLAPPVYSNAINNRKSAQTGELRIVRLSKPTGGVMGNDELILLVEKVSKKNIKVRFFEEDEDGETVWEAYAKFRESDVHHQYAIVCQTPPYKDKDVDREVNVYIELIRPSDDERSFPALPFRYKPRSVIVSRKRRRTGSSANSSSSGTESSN
Sequence,binding signal (GST-Ap-NF-kB RHD) [z-score],binding signal [1] [z-score],binding signal (GST-Co-NF-kB) [z-score],binding signal (GST-Dm-Relish) [z-score]
CCGATTAACATCAAGTACTTTCCTGATGTTAATCGGGTCTTGATTCGCTTGACGCTGCTG,-0.344,0.246,-0.199,5.26
CCGATTAACATCACGGACTCTCCTGATGTTAATCGGGTCTTGATTCGCTTGACGCTGCTG,0.0521,-0.387,0.0113,0.0749
CCGATTAACATCAGGTTTTTCCATGATGTTAATCGGGTCTTGATTCGCTTGACGCTGCTG,0.25,-0.0888,0.345,2.68
CCGATTAACATCAAGGGGACTTCTGATGTTAATCGGGTCTTGATTCGCTTGACGCTGCTG,7.92,7.59,2.41,7.45
CCGATTAACATCAAATTTTCCGGTGATGTTAATCGGGTCTTGATTCGCTTGACGCTGCTG,0.592,0.841,0.761,1.54
CCGATTAACATCAAGATCCCTTGTGATGTTAATCGGGTCTTGATTCGCTTGACGCTGCTG,0.746,-0.481,-0.154,0.695
CCGATTAACATCAGAATTGCCCATGATGTTAATCGGGTCTTGATTCGCTTGACGCTGCTG,0.771,0.491,0.88,0.737
CCGATTAACATCACGGATATTCCTGATGTTAATCGGGTCTTGATTCGCTTGACGCTGCTG,-0.189,0.132,0.536,0.37
CCGATTAACATCAGAAATTCCGCTGATGTTAATCGGGTCTTGATTCGCTTGACGCTGCTG,0.11,0.373,-0.467,0.523
CCGATTAACATCAGGGGTTCACCTGATGTTAATCGGGTCTTGATTCGCTTGACGCTGCTG,3.84,2.71,1.45,8.89
CCGATTAACATCAGGAAATTTCATGATGTTAATCGGGTCTTGATTCGCTTGACGCTGCTG,0.00928,0.038,-0.437,0.374
CCGATTAACATCACACCCCAACATGATGTTAATCGGGTCTTGATTCGCTTGACGCTGCTG,1.38,0.335,2.16,0.447
CCGATTAACATCAAAAATCCGGTTGATGTTAATCGGGTCTTGATTCGCTTGACGCTGCTG,-0.244,0.0719,-0.726,0.978
CCGATTAACATCACAGGGTTTCCTGATGTTAATCGGGTCTTGATTCGCTTGACGCTGCTG,0.684,0.392,0.0345,2.82

# From PMC5700166
